Values joined by “and” are separate entries in the source; they are usually repeats but may differ in a detail not shown here. Identical values can stand only once. Screen size: about 270,000 compounds; about 5,800 (2.1%) were called active. The shares of active, inactive and inconclusive entries below differ from those in the screen. Calls follow the shape of the dose curve; as a rule, active = well fitted inhibition curve with a large enough effect; inconclusive = small, poorly fitted or top-dose-only effect; inactive = flat fitted curve, though single readings scatter. Potencies of inconclusive entries are doubtful fits and often do not repeat.
Target: Microtubule-associated protein tau (Homo sapiens) (UniProt P10636)
Sequence of UniProt P10636 (P10636 whole entry, looked up): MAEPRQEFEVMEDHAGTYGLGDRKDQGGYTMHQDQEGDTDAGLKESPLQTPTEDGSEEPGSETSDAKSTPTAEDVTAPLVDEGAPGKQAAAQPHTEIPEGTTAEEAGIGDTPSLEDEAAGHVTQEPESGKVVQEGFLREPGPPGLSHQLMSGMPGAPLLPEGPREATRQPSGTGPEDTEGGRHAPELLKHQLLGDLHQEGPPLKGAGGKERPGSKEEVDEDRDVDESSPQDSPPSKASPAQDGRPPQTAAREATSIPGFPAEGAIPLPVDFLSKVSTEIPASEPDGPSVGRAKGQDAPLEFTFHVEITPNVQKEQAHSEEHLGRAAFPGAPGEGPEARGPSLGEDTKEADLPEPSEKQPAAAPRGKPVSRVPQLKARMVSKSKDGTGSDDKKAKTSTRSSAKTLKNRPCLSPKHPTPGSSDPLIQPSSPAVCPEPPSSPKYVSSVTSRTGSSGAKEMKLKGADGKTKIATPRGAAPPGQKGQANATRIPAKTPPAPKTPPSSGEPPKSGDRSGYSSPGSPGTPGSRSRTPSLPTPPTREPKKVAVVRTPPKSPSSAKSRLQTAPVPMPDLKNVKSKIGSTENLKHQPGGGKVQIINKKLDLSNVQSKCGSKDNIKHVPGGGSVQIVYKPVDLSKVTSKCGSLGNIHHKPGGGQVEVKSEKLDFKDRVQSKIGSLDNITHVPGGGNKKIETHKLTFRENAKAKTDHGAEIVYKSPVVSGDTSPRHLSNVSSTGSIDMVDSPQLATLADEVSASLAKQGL
Test: qHTS for Inhibitors of Tau Fibril Formation, Thioflavin T Binding; also: nearly all actives have a fitted effect of over 55% in size
Settings: recombinant tau K18 P301L (four-repeat tau fragment), heparin-induced fibrillization, ThT fluorescence; series mostly up to 57.4 µM
In short: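 Heparin-induced fibrillization of the P301L-mutant K18 repeat-domain fragment of human tau was followed by ThT binding in quantitative high-throughput format.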
Potency is read from the fitted curve at half-maximal effect; tags tell the direction and shape of the fitted curve.

Compound	Potency
CCOc1ccc(NC(=O)c2cc3sc(Cl)cc3n2CC)cc1	inconclusive: 2 µM [inhibitor, full curve, poor fit]
Cc1ccc(S(=O)(=O)NCC(=O)N(CCc2ccccc2)CC(=O)NCc2ccco2)cc1	inactive
CC(=O)OCC1=C(C(=O)O)N2C(=O)C(NC(=O)C(C)Cn3nc(C)c(Cl)c3C)C2SC1 (stereo not drawn)	inconclusive: 35.5 µM [inhibitor, partial curve, poor fit]
Cc1ccc(C(=O)N/N=C/c2ccc([N+](=O)[O-])s2)cc1	inconclusive: 3.55 µM [inhibitor, full curve]
COc1cc(/C=C(\C#N)c2ccccn2)ccc1OCc1ccccc1Cl	inconclusive: 8.91 µM [inhibitor, partial curve]
CCOc1ccc(NC(=O)/C=C/c2ccccc2)c([N+](=O)[O-])c1	inconclusive: 2.24 µM [inhibitor, full curve]
Cc1nc2sc(C(=O)N(C)Cc3ccccc3)c(NC(=O)c3ccccc3)c2c(C)c1Cl	inactive
Cc1ccc(-n2ncc3c(NCCCN4CCCC4=O)ncnc32)c(C)c1	inactive
COc1ccc(CNC(=O)C(c2ccc(C)o2)N(Cc2cccs2)C(=O)Cc2cccs2)cc1 (stereo not drawn)	inactive
CCOC(=O)c1c(NC(=O)COc2cccc(C(F)(F)F)c2)sc2c1CCC(C)C2 (stereo not drawn)	inconclusive: 11.2 µM [inhibitor, partial curve]
CCOC(=O)c1ccc(NC(=O)CSc2nc3c(c(=O)n2CC)SC(C)C3)cc1 (stereo not drawn)	inconclusive: 35.5 µM [inhibitor, partial curve, poor fit]
CCn1c2ccccc2c2nnc(N3CCN(c4ccc(F)cc4)CC3)nc21	inactive
CCN(CC)c1nn2c(=O)c(C(=O)NCCc3ccc(C)cc3)cnc2s1	inactive
O=C(CCl)N(CCCNC(=O)C(F)(F)F)c1ccc([N+](=O)[O-])cc1	inconclusive: 22.4 µM [inhibitor, partial curve, poor fit]
Cc1cc(=O)[nH]c(SCC(=O)Nc2ccccc2C#N)c1C#N	inactive
Cc1ccc(S(=O)(=O)NCCc2ccc(S(N)(=O)=O)cc2)cc1	inactive
CC(C)(C)c1ccc(OCc2ccc(C(=O)N/N=C/c3ccc(O)c(O)c3)cc2)cc1	inconclusive: 2.82 µM [inhibitor, partial curve]
CCCCC1CCC(C(=O)N2CC(=O)Nc3ccc(F)cc3C2c2ccc(F)cc2)CC1 (stereo not drawn)	inconclusive: 35.5 µM [inhibitor, single point]
CCOc1ccccc1C1C(C(N)=O)=C(C)Nc2nc(-c3cccc(C)c3)nn21 (stereo not drawn)	inconclusive: 20 µM [inhibitor, partial curve]
CCC(c1nnnn1Cc1ccco1)N(Cc1cc2cc(C)cc(C)c2[nH]c1=O)CC1CCCO1 (stereo not drawn)	inconclusive: 35.5 µM [inhibitor, single point]
c1ccc2c(c1)Cn1nc(Cc3nc4c(s3)CCCC4)nc1-2	inconclusive: 39.8 µM [inhibitor, single point]
CCOC(=O)c1cnn(-c2ccccc2)c1-n1cccc1C(=O)C(=O)Nc1ccc(OC)cc1	inactive
CC(C)(C)c1ccccc1OCCOCCNCc1ccccc1	inactive

Compound	Potency
COc1ccc(OCc2ccc(-c3nc(C#N)c(N4CCN(C)CC4)o3)o2)cc1	inconclusive: 22.4 µM [inhibitor, partial curve]
CCOc1ncccc1C(=O)OCc1ccc(C(=O)OC)cc1	inconclusive: 10 µM [inhibitor, partial curve]
CC(C)Cn1c(SCC(=O)NC(=O)NC2CCCC2)nc2ccccc21	inconclusive: 20 µM [inhibitor, partial curve, poor fit]
Cn1c2ccccc2c(=O)c2c(=O)n(Cc3ccco3)c(-c3ccc(Cl)cc3Cl)nc21	inconclusive: 28.2 µM [inhibitor, partial curve, poor fit]
Cc1cc(N2CCN(c3ccc(F)cc3)CC2)nc2cc(O)ccc12	inconclusive: 2 µM [inhibitor, full curve]
CCOc1ccc(S(=O)(=O)NCCc2csc(-c3ccc(Cl)cc3)n2)cc1	inactive
COC(=O)[C@@]1(Cc2ccc(OC)cc2)[C@H]2c3cc(C(=O)N4CCCC4)n(Cc4nc5ccccc5[nH]4)c3C[C@H]2CN1C(=O)c1ccccc1	inconclusive: 31.6 µM [inhibitor, single point]
CCCOc1ccc(/C=C/C(=O)Nc2sc(C)c(C)c2C(=O)OCC)cc1OC	active: 28.2 µM
CCCN1CCN(CCCNC(=O)c2cc3c(Cl)nc4ccccc4c3s2)CC1	inconclusive: 39.8 µM [inhibitor, single point]
CCOC(=O)C1(C)/C(=N/Nc2ccccc2OC)C(=O)C(=O)N1c1ccccc1 (stereo not drawn)	active: 15.8 µM
O=[N+]([O-])c1ccccc1/C=N/N1CCN(c2ccc(Cl)cc2)CC1	active: 11.2 µM
Cc1cc(C)cc(Nc2ncnc3c2nc2n3CCCC2)c1	inactive
O=[N+]([O-])C(=c1ccc2c(c1)N1C3=C(CCCC3)CC3CCCCC31N=2)[N+](=O)[O-] (stereo not drawn)	inconclusive: 11.2 µM [inhibitor, partial curve]
Cc1[nH]c2c(Br)cccc2c1[C@H]1[C@@H](CC#N)C1(C)C	inconclusive: 39.8 µM [inhibitor, single point]
CCOC(=O)C1=C(C)N=c2s/c(=C\C(=O)OC)c(=O)n2C1c1ccc(OC)cc1 (stereo not drawn)	inconclusive: 31.6 µM [inhibitor, partial curve]
N#CC1=C(Nc2ccccc2Cl)SC(c2ccccc2O)NC1=O (stereo not drawn)	inconclusive: 35.5 µM [inhibitor, single point]
CCOc1ccc(NC(=O)CCN2CCN(S(=O)(=O)c3cc(Cl)ccc3OC)CC2)cc1	inactive
COc1ccc(-c2nnc(SCc3cc(C)ccc3C)n2N)cc1	inactive
O=C(Oc1cc2oc(=O)c3c(c2cc1Cl)CCCC3)c1ccco1	inconclusive: 15.8 µM [inhibitor, partial curve]
Cc1c(Br)c([N+](=O)[O-])nn1CC(=O)Nc1ccc(C(N)=O)cc1	inconclusive: 35.5 µM [inhibitor, single point]
COc1ccc(NC(=O)c2cc3c(Cl)nc4ccccc4c3s2)cc1OC	inconclusive: 3.98 µM [inhibitor, partial curve]
COC(=O)C1C(=O)c2c([nH]c(C(=O)OC3CCCC3C)c2C)CC1C (stereo not drawn)	inconclusive: 20 µM [inhibitor, single point]
Cc1ccccc1-c1noc(-c2ccc(N3CCN(c4ccccc4)CC3)c([N+](=O)[O-])c2)n1	inactive

Compound	Potency
CCNC(=O)NC(=O)CSc1nc2ccccc2n1CCOC	inactive
c1ccc(OCc2noc(CN3CCC(C4CCCCC4)C3)n2)cc1 (stereo not drawn)	inconclusive: 25.1 µM [inhibitor, partial curve]
CC(C)C(C)NC(=O)CSc1nc2scc(-c3ccco3)c2c(=O)n1-c1ccccc1 (stereo not drawn)	active: 8.91 µM
OC[C@H]1O[C@@H](n2cnc3cncnc32)[C@H](O)[C@@H]1O	inactive
CCn1c(O)c(N=NC2=NC(=O)CS2)c2ccccc21	inconclusive: 14.1 µM [inhibitor, partial curve]
COc1ccc(N(CC(=O)Nc2ccc(C)c(C)c2)S(=O)(=O)c2ccc(C)cc2)cc1OC	inactive
COC(=O)CSc1ncnc2c1sc1nc(-c3ccco3)c3c(c12)CC(C)(C)OC3	inconclusive: 20 µM [inhibitor, single point]
CC1=NN(C(=O)c2ccc(Br)cc2)C(O)(c2ccccc2)C1 (stereo not drawn)	inconclusive: 10 µM [inhibitor, partial curve]
COCCCN(Cc1ccco1)C(=O)c1cc2c(s1)-c1ccccc1OC2	inconclusive: 17.8 µM [inhibitor, partial curve]
O=C1CC(Sc2nnnn2-c2ccccc2)C(=O)N1c1cccc(Cl)c1 (stereo not drawn)	inconclusive: 28.2 µM [inhibitor, single point]
COc1ccc(/C=C/c2nnc(NC(=O)CSc3ccc(Cl)cc3)s2)cc1	inconclusive: 0.631 µM [inhibitor, full curve]
CC(C)Cn1c(=O)c2ccccc2n2c(CCC(=O)N3CCN(c4cccc(Cl)c4)CC3)nnc12	inconclusive: 28.2 µM [inhibitor, single point]
COc1ccc(-c2ccc3ccccc3n2)cc1	inactive
COc1ccc(N/C(C)=C2/C(=O)C(=O)N(CCO)C2c2ccc(Br)cc2)cc1 (stereo not drawn)	inconclusive: 22.4 µM [inhibitor, single point]
COc1ccccc1-c1noc(-c2ccc(N3CCOCC3)c([N+](=O)[O-])c2)n1	inactive
CCOC(=O)c1sc(Nc2cccc(C)c2C)nc1C	inconclusive: 31.6 µM [inhibitor, partial curve]
C=C(C)Cn1c(SCC(=O)Nc2ccccc2C)nc2sc3c(c2c1=O)CCCC3	inconclusive: 4.47 µM [inhibitor, partial curve]
Cc1ccc(C(=O)Nc2ccc3c(c2)CCC3)cc1	inconclusive: 35.5 µM [inhibitor, single point]
COc1ccc(CNC(=O)Cn2nc(C)n3cccc3c2=O)cc1	inactive
COc1ccc(-c2nc(SCC(=O)NC3CCCC3)c(-c3ccc(OC)cc3)[nH]2)cc1	inactive and inconclusive: 12.6 µM [inhibitor, partial curve]
Cn1cc(/C=N\O)nc2c(=O)n(-c3ccccc3)c(=O)nc1-2	inconclusive: 17.8 µM [inhibitor, partial curve]
COc1ccccc1N1CCN(C(=O)c2cc3c(=O)n(C)c4ccccc4c3s2)CC1	inconclusive: 14.1 µM [inhibitor, partial curve]

Reference: PubChem BioAssay AID1460 (National Center for Advancing Translational Sciences (NCATS), 2008)
